According to PMC8494430, “Development of a fluorogenic ADAMTS-7 substrate” (Journal of Enzyme Inhibition and Medicinal Chemistry, 2021):

Molecular target: T1, ADAMTS-5 (Homo sapiens, UniProt Q9UNA0)
T1 construct: made in house
T1 sequence (Q9UNA0 262-930): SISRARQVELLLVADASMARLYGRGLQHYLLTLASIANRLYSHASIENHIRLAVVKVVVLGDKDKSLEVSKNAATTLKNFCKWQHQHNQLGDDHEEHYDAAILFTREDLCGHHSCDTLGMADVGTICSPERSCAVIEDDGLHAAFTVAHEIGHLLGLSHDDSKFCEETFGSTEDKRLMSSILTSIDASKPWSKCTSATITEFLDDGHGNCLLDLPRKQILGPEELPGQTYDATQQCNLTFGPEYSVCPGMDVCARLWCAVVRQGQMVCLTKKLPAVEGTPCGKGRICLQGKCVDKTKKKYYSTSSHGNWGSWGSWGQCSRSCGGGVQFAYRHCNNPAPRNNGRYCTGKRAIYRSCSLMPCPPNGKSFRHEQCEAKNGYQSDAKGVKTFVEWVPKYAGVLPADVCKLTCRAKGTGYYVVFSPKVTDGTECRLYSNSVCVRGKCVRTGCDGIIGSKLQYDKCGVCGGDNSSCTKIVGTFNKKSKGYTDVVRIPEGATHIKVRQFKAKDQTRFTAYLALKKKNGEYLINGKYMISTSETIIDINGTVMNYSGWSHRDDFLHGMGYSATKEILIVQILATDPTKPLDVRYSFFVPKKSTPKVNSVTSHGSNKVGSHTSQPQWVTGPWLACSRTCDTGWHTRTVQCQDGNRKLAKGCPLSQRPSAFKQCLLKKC
Test: ADAMTS-5 FRET peptide inhibition assay
Format: biochemical
Details: Cheng-Prusoff, read-out: Ki app ADAMTS-5

## O=C(NCCC[C@@H](NS(=O)(=O)c1ccc(OCc2ccc(F)cc2Cl)cc1)C(=O)NO)c1ccccc1 [EDV33]
  Ki: 6.5 ± 0.1 nM
